Experimental data reported in paper PMC4336329 (PLoS ONE, 2015).
The whole screen tested about 310,000 compounds, of which about 14,000 (4.5%) showed an effect of 50% or more. The effect is printed as a negative number. Some of the results follow.

biological target: human ether-à-go-go-related gene (hERG) potassium channel (human, UniProt Q12809); assay: primary screen, population patch clamp on CHO cells stably expressing hERG
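Also: peak tail current of the secondary pulse compared with the same well before compound.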

Sequence of human ether-à-go-go-related gene (hERG) potassium channel (Q12809 whole entry, looked up): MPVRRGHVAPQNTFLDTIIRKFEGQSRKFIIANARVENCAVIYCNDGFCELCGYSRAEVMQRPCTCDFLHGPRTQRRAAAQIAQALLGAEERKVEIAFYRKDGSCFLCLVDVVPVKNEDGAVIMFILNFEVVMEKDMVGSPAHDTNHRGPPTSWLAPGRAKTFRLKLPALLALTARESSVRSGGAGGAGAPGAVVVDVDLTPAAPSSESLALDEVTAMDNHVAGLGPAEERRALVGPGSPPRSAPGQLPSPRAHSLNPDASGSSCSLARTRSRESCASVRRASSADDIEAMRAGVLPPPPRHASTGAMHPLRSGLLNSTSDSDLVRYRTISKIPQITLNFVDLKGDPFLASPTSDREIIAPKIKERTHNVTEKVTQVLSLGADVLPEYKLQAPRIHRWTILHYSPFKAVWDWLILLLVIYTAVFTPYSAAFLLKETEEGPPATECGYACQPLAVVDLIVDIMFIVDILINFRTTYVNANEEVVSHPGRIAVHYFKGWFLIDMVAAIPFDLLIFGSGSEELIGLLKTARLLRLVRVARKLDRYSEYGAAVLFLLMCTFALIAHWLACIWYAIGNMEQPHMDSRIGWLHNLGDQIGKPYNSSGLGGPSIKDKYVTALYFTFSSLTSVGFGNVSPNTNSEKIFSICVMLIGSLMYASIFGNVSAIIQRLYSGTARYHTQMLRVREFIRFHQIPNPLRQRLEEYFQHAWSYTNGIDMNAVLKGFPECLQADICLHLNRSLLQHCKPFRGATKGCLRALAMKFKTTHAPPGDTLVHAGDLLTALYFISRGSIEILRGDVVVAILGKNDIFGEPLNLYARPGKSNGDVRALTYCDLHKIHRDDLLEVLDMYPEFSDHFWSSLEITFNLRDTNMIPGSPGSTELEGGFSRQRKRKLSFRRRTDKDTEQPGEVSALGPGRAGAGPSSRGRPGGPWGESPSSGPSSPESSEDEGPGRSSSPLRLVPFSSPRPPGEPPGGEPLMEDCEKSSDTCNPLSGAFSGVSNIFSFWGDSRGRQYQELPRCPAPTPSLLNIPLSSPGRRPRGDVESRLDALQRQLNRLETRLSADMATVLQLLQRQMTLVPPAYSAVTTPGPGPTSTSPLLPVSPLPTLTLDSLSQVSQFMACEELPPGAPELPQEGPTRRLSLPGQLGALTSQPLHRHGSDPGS

| Compound | hERG current change (%, negative = inhibition) at 10uM [%] |
| --- | --- |
| CC(C)C(OC(=O)c1oc2ccccc2c1CSC1CCCCC1)C(=O)NC(N)=O (stereo not shown) | 21.2 |
| CCc1nnc(NC(=O)c2cc(C)oc2C)s1 | -10 |
| COCCN(Cc1ccccc1)C(=O)c1cccc(S(=O)(=O)N2CCN(c3ccccc3)CC2)c1 | -52.8 |
| CCOC(=O)Cc1nnc(NC(=O)c2cccc(OCC)c2)s1 | 6.22 |
| O=C(O)CCS(=O)(=O)c1cc(Br)cc2c1N(C(=O)C1CC1)CC2 | 9.39 |
| Cc1oc(-c2cccc3ccccc23)nc1CN1CCC[C@H]1CO | -12.2 |
| COc1ccc(S(=O)(=O)Cc2ccc(C(=O)N3CCN(c4ccccc4F)CC3)o2)cc1 | -52.8 |
| CC(C)c1ccc(OCC(=O)NN2C(=O)c3ccccc3C2=O)c(Br)c1 | 8.95 |
| CN1CCN(c2ccc(C(CC(N)=O)NC(=O)Cc3ccc(Br)cc3)cc2[N+](=O)[O-])CC1 (stereo not shown) | 3.08 |
| Cc1c2cnn(CC(=O)NC3CCCC3)c(=O)c2c(C)n1Cc1ccccc1 | 11.7 |
| CCOc1ccc(S(=O)(=O)NC(Cc2cnc[nH]2)C(=O)O)cc1 (stereo not shown) | 18.5 |
| CCOc1ccc(S(=O)(=O)Nc2ccccc2SC)cc1 | -19.4 |
| O=C(Cc1c(O)c2ccccc2oc1=O)c1ccc(F)cc1 | 6.47 |
| Cc1ccc(-c2noc(-c3ccno3)n2)cc1 | 9.19 |
| COC(=O)c1nc[nH]c1C(=O)OC | 14.3 |
| Cc1ccc(NC(=O)Cn2c(=O)n(Cc3ccco3)c(=N)c3c4c(sc32)COC(C)(C)C4)cc1 | -7.76 |
| CCOC(=O)/C(C#N)=C/c1cc2ccccc2nc1N1CCOCC1 | -13.6 |
| COc1ccc([C@H]2CC(=O)C=C(c3ccc(-c4ccccc4)c(F)c3)C2)cc1 | 15.7 |
| CCN(CC)CCN/N=C(\C)c1c(O)[nH]c(=O)[nH]c1=O | 13.9 |
| CCOc1ccc(Br)cc1C(=S)N1CCCC1 | 9.29 |

| Compound | hERG current change (%, negative = inhibition) at 10uM [%] |
| --- | --- |
| CCCCNC(=S)Nc1ccc(F)cc1 | 20.6 |
| O=C(CN(C(=O)CCC(=O)Nc1nccs1)c1cccc(F)c1)NCc1ccc(F)cc1 | -7.31 |
| COC(=O)/C(C#N)=C\c1c(OC)[nH]c2ccccc12 | 14 |
| O=C(N/N=C/c1ccc(N2CCOCC2)cc1)c1ccccn1 | 7.37 |
| CCC1(C)SC(NC(C)=O)=NN1C(C)=O (stereo not shown) | 20.6 |
| CC(C)n1cc(/C=N/Nc2ccc(C(=O)O)cc2)c2ccccc21 | 1.07 |
| CCc1ccc(Nc2n[n+](C)c(-c3ccncc3)s2)cc1.[Cl-] | -29.7 |
| Cc1ccc(NC2CCCN(C(=O)c3cccc4nccnc34)C2)cc1C (stereo not shown) | 23 |
| CCCCOC(=O)c1nc(Cl)c(Cl)c(N)c1Cl | -0.0656 |
| COc1ccc(NC(=S)Nc2ncccc2C)c(OC)c1 | 8.22 |
| O/N=C1\CCCc2ccc3ccccc3c21 | 10.8 |
| CC1CCc2sc3nc(NCc4ccco4)n4ncnc4c3c2C1 (stereo not shown) | -3.05 |
| CCCCNc1nc(CC(C)=O)ns1 | 0.309 |
| COc1ccc(CCNC(=O)CSc2nnc3ccc(-c4cccnc4)nn23)cc1 | -33.5 |
| Cc1cc(C(=O)COc2cccc([N+](=O)[O-])c2)c(C)n1C1CC1 | -35.7 |
| Cc1cc(C)cc(OCC(=O)OCC(=O)c2c(N)n(C)c(=O)n(C)c2=O)c1 | -5.06 |
| CCc1ccc(NC(=O)CC2C(=O)Nc3c2c(=O)n(C)c(=O)n3C)cc1 (stereo not shown) | -4.1 |
| COCCN=C1Sc2nc3ccc(C)cc3cc2CN1Cc1ccco1 | -61 |
| Cc1ccc(N2C(=O)CC(Sc3ccccc3C(=O)O)C2=O)c([N+](=O)[O-])c1 (stereo not shown) | 16.2 |
| CC(C)c1cccc(C(C)C)c1NC(=O)COC(=O)C1CCC1 | 14.4 |

| Compound | hERG current change (%, negative = inhibition) at 10uM [%] |
| --- | --- |
| CCCCCCC(C)n1[nH]c(=O)cc1N (stereo not shown) | 3.7 |
| O=C(COc1ccc2c3c(c(=O)oc2c1)CCC3)NCC(O)c1ccccc1 (stereo not shown) | 11.5 |
| Cc1cc(C)nc(OC(C(=O)O)C(OCCc2ccccc2)(c2ccc(F)cc2)c2ccc(F)cc2)n1 (stereo not shown) | 11.3 |
| O=C(Nc1cccc(Cl)c1)OCc1ccccn1 | 1.34 |
| CC(C)n1c(=S)[nH]c2ccccc2c1=O | 0.0442 |
| O=C(NNS(=O)(=O)c1ccc(Cl)cc1)C1CCN(Cc2ccccc2)CC1 | -15.5 |
| COc1ccc(NC(=O)CCCn2c(=O)[nH]c3ccccc3c2=O)cc1 | 1.73 |
| Cc1ccc(-c2cccc(NC(=O)C3C4C=CC(C4)C3C(=O)O)c2)o1 (stereo not shown) | -33.1 |
| CN(Cc1nccn1C)C(=O)CC1C(=O)NCCN1Cc1cccc(Oc2ccccc2)c1 (stereo not shown) | -2.23 |
| Cc1cc(C)nc(N(C#N)CN2C(=O)c3ccccc3S2(=O)=O)n1 | 0.542 |
| O=Cc1cn(Cc2c(F)cccc2Cl)nc1-c1ccccc1 | 0.413 |
| Cc1ccc(CONS(=O)(=O)c2cc(C)ccc2C)cc1 | 15.5 |
| O=C(CN1C2CCC1CC(O)(c1cccnc1)C2)Nc1ccc2c(c1)OCO2 (stereo not shown) | -53.1 |
| CN(C)Cc1ccccc1C1(O)c2ccccc2CSc2ccccc21.Cl (stereo not shown) | 9.09 |
| COc1ccc(Cl)cc1NC(=O)CCN1C(=O)C2C3CCC(C3)C2C1=O (stereo not shown) | -6.36 |
| CC1CCCC(NC(=O)COC(=O)c2cc(S(=O)(=O)N3CCCCC3)ccc2N2CCOCC2)C1C (stereo not shown) | -31.8 |
| Cc1ccc(C2CCN(C(=S)Nc3cccc(C)c3)C2)cc1 (stereo not shown) | 1.21 |
| COC(c1ccccc1)c1nnc(CCC(=O)NCCc2ccc(Cl)cc2)o1 (stereo not shown) | -8.74 |
